Data on three molecules can be found in patent US20260042865A1 (Amgen, published 2026).

In experiment [1] the target is Mouse IgG2a (mouse). Description: Octet (BLI), mouse IgG2a on streptavidin biosensor, pH 7.4, 2 mM CaCl2. In general terms: BLI is a label-free optical method that tracks binding on a fibre tip over time.
Experiment [2] deals with Mouse IgG2a (mouse). Kind of experiment: Octet (BLI), mouse IgG2a on streptavidin biosensor, pH 6, 2 uM CaCl2.
Experiment [3] deals with Mouse IgG2a (mouse). Kind of experiment: Octet (BLI); ratio of the pH 6/2 uM CaCl2 value to the pH 7.4/2 mM CaCl2 value (fits the ratio of kdiss).

Substitutions are numbered along the chain they refer to.

Mouse IgG2a (mouse), sequence (P01863 whole entry): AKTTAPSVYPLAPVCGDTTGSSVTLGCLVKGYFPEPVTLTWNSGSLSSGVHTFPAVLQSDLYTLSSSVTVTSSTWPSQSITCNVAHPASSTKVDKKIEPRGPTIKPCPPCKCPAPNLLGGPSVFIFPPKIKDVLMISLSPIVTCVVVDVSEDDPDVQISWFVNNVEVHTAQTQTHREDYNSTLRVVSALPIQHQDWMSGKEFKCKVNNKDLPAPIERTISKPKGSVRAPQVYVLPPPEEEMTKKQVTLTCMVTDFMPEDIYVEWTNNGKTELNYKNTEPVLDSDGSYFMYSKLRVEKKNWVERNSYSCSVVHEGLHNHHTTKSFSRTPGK

B1: Catabolic anti-mIgG2a 099 Fab-scFc (Fc fusion)
heavy: EQLEESGGDLVKPGASLTLTCTASGFSFTSDYYMCWVRQAPGKGLEWIACIGAGDIHTTYYANWAKGRFTISKTSSTTVTLQMTTLTAADTATYFCARDTYNIGGYTGDFDLWGPGTLVTVSS[human IgG1 constant region cut from this listing]GGGGSGGGGSGGGGSGGGGSGGGGSGGGGS[human IgG1 Fc cut from this listing]
light: ALVMTQPPASVSAAVGGTVTINCQASESISTWLAWYQQKPGQPPKLLIYYASTLASGVPSRFKGSGSGTQFTLTISGVECDDAATYYCAGHKSYSSDDFAFGGGTEVVVKGTVAAPSVFIFPPSDEQLKSGTASVVCLLNNFYPREAKVQWKVDNALQSGNSQESVTEQDSKDSTYSLSSTLTLSKADYEKHKVYACEVTHQGLSSPVTKSFNRGEC
A word on the Kd: it is the free concentration of one partner at which half of the binding sites on the other are occupied at equilibrium, for simple one-to-one binding. A higher Kd goes with a looser complex. As a reminder, the koff is the first-order rate constant of dissociation. A low value points to a long-lived complex. A word on the kon: it is a measure of how fast the partners come together. Read a high kon as faster complex formation. In experiment [1], B1 gave a Kd of 3 nM, a koff of 0.00024 s⁻¹ and a kon of 81000 M⁻¹ s⁻¹. In experiment [2], this molecule came in with a Kd of 9.3 nM, a koff of 0.00068 s⁻¹ and a kon of 74000 M⁻¹ s⁻¹.

B2: Catabolic anti-mIgG2a 465 Fab-scFc (Fc fusion)
heavy: B1 heavy with I51H
light: B1 light
Take B2: in experiment [1], the equilibrium dissociation constant (Kd) was 10 nM, the off-rate (koff) was found to be 0.00054 s⁻¹ and the kon worked out at 54000 M⁻¹ s⁻¹. Moreover, in experiment [2], the Kd amounted to 260000 nM and the koff stood at 0.022 s⁻¹. Also, in experiment [3], the pH 6/pH 7.4 stood at 41.1.

B3: Catabolic anti-mIgG2a 463 Fab-scFc (Fc fusion)
heavy: B1 heavy with M34H
light: B1 light
Consider B3, for which, in experiment [1], the Kd was found to be 5 nM, the koff is 0.0002 s⁻¹ and the kon worked out at 40000 M⁻¹ s⁻¹. In experiment [2], this molecule gave a dissociation constant Kd of 580 nM, a koff of 0.01 s⁻¹ and an association rate constant (kon) of 17000 M⁻¹ s⁻¹. In addition, the pH 6/pH 7.4 in experiment [3] worked out at 50.
